From PubChem BioAssay AID743279 (National Center for Advancing Translational Sciences (NCATS), 2014)
In all, about 360,000 compounds went through this assay and about 17,000 (4.7%) were called active. The inconclusive results got no clear call from the source; some entries with a clear call stand among them for comparison. No stated cut-off is given here; in the data, active means activity change below about -50%; inconclusive means mostly about -30% to -49%; inactive means weaker than that.
On the % scale 0 is the no-effect control and ±100 the full control effect.

Assay: qHTS for Inhibitors of Inflammasome Signaling: IL-1-beta AlphaLISA Primary Screen
Conditions: THP-1 LPS/ATP IL-1B secretion, 16 h; at 57.5 µM, active compounds read low
In short: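 Secreted IL-1B measured by AlphaLISA bead assay after 16 h compound exposure of THP-1 cells; compounds (final up to 57.5 uM) added 1 h before LPS (250 ng/mL) and ATP (1.25 mM) stimulation; lower signal means less secretion.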
For `Cn1c(SCc2cccc(F)c2)nnc1-c1ccccn1`, the activity change was inconclusive: -31.5%. In the case of `O=C(c1ccc(OC2CCN(CCc3ccccc3)CC2)cc1)N1CCCC(CCCO)C1` (stereo not drawn), the activity change is reported as inconclusive: -30.4%. With `C[C@@]12C(=O)Nc3ccc(Cl)cc3C(=O)N1[C@H]1c3cc(Br)ccc3OC[C@@H]1[C@@H]2c1ccccc1` the activity change was inactive: -28.4%. With `CCOC(=O)C1(CCCc2ccccc2)CCN(C(=O)C2CCCN(C(N)=O)C2)CC1` (stereo not drawn) the activity change was inactive: 4.94%. In the case of `CN(C)S(=O)(=O)c1cccc(NC(=O)COC(=O)C2(c3ccccc3F)CCCC2)c1`, the activity change is reported as inconclusive: -46.4%. With `Cc1cc(C)n(CC(O)Cn2c3ccc(Cl)cc3c3cc(Cl)ccc32)c(=O)n1` (stereo not drawn) the activity change was inconclusive: -35.3%. With `COc1cc(C)c(CN2CCC(Cc3ccccc3)CC2)cc1C` the activity change was inconclusive: -37.4%. In the case of `CCC(NC(=O)c1[nH]c(C)c(C(C)=O)c1C)c1ccc(Br)cc1` (stereo not drawn), the activity change is reported as inconclusive: -30.5%. In the case of `C=CC[C@H](CC(=O)OC(C)(C)C)C(=O)OC[C@H]1CCCN1C(=O)[C@@H](CC=C)CC(=O)N(CCO)Cc1ccccc1`, the activity change is reported as inconclusive: -33.3%. For `COc1ccc(CCN(C)Cc2ccc(OCc3ccccc3)c(OC)c2)cc1OC`, the activity change was inconclusive: -47.9%. For `CC(=O)NCCC(=O)Nc1ccc(C(N)=O)cc1`, the activity change was inactive: -0.93%. With `COc1ccc(CN(C(=O)CSc2nnc(-c3c[nH]c4ccccc34)o2)c2ccc(F)cc2)cc1OC` the activity change was active: -82.8%. With `COc1ccc(NC(=S)NC(NC(=O)c2ccccc2Cl)C(Cl)(Cl)Cl)c([N+](=O)[O-])c1` (stereo not drawn) the activity change was active: -86.8%. With `O=C(CN1CCN(C(=O)CNC(=O)c2ccc(N3CCCC3=O)cc2)CC1)Nc1ccccc1Cl` the activity change was inactive: -4.19%. With `Cc1ccc(-c2nc(Nc3cccc(O)c3)c3ccccc3n2)cc1` the activity change was inconclusive: -38.3%. For `CC1(C)CC(=O)C(C=NCCO)=C(O)C1`, the activity change was inactive: 3.78%. For `COc1cc(OC)cc(C(=O)N[C@H](C(=O)OCC(=O)Nc2ccc(F)c(F)c2)C(C)C)c1`, the activity change was inactive: -13.1%. In the case of `Cn1c(=O)n(CCCOc2ccc(Cl)cc2)c2ccccc21`, the activity change is reported as inactive: -14.5%. With `CC(C)(C)C(=O)N1N=C(c2cccc(NS(C)(=O)=O)c2)CC1c1cccs1` (stereo not drawn) the activity change was inconclusive: -42.1%. With `CCc1ccc(NC(=S)NC2CC3CCC(C2)N3Cc2ccco2)cc1` (stereo not drawn) the activity change was inactive: -4.24%. For `CCOC(=O)CC1(NC(=O)c2cc(COc3cncc(Cl)c3)on2)CCCCC1`, the activity change was inconclusive: -40.8%. With `OCC1(Cc2ccccc2)CCN(Cc2ccc(C(F)(F)F)cc2)CC1` the activity change was active: -50.9%. In the case of `CCOC(=O)C1CCCN(C(=O)CSc2ccc(NC(C)=O)cc2)C1` (stereo not drawn), the activity change is reported as inconclusive: -37.4%. For `Cc1ccccc1C(=O)c1c[nH]c(C(=O)N2CCN(c3ccccc3F)CC2)c1`, the activity change was active: -66.2%. For `Cc1ccc(C(=O)CC(SCC(=O)O)c2ccc([N+](=O)[O-])cc2)cc1` (stereo not drawn), the activity change was inconclusive: -30%. With `O=C(CN1c2cccc3cccc(c23)S1(=O)=O)NCc1ccccc1Cl` the activity change was inactive: -2.51%. With `Cc1cc(C)c(OCC(=O)NCC2COc3ccccc3O2)c(C)c1` (stereo not drawn) the activity change was inconclusive: -42.7%. With `CCOc1cc(C2C(C#N)=C(N)OC(C)=C2C(C)=O)c(Br)c(Br)c1OC(C)C` (stereo not drawn) the activity change was inactive: 0%. With `O=C(/C=C/c1cccc([N+](=O)[O-])c1)NCCSCc1ccccc1Cl` the activity change was inconclusive: -35%. For `CC(=O)c1ccc(-c2cnc3c(NC=O)cc(-c4cnn(C)c4)cn23)cc1`, the activity change was inconclusive: -33.1%. In the case of `O=C(c1cccs1)N1C[C@H](n2cc(-c3ccc(F)cc3)nn2)[C@@H](O)C[C@@H]1c1ccc(Cl)cc1`, the activity change is reported as inconclusive: -34.4%. With `COCCNc1cc(C)c(C#N)c2nc3ccccc3n12` the activity change was inconclusive: -31.9%. In the case of `NC(=O)c1ccc(-c2ccc(N3C(c4ccsc4)=Cc4ccc(F)cc4C3CC(=O)c3ccco3)cc2)cc1` (stereo not drawn), the activity change is reported as inactive: -14.1%. For `CCN(CCC(=O)Nc1ccc(Br)c(C)c1)Cc1ccccc1`, the activity change was inconclusive: -36.3%. In the case of `COc1ccc(C(C#N)CC(=O)c2ccc3c(c2)OCO3)cc1OC` (stereo not drawn), the activity change is reported as inactive: -22.2%. With `Cc1c(NC(=O)C(C)N2C(=O)C3CCCCC3C2=O)c(=O)n(-c2ccccc2)n1C` (stereo not drawn) the activity change was inactive: 29.4%. For `Cc1ccc2c(c1)cc(C)c1nnc(SCC(=O)NCc3ccco3)n12`, the activity change was inactive: -17.2%. In the case of `CN(C)CCCNc1nc2cc(-c3ccsc3)sc2c(=O)n1C`, the activity change is reported as inconclusive: -34.4%. In the case of `Fc1cccc(CCN2C(=S)NC[C@@H]2CC2CCCCC2)c1`, the activity change is reported as inconclusive: -47.3%. In the case of `O=C(COC(=O)/C=C/c1ccc(Cl)cc1)NC1CC1`, the activity change is reported as inconclusive: -34.3%. With `CC(C)CCOP(=O)(c1ccc(N(C)C)cc1)C(Nc1ccccc1)c1ccc(N(C)C)cc1` (stereo not drawn) the activity change was inconclusive: -36.9%. For `O=C(C1CCCO1)N1CCN(c2ccccn2)CC1` (stereo not drawn), the activity change was inactive: -16.7%. In the case of `CCOc1ccc2[nH]c(=O)c(CN(Cc3cccs3)Cc3nnnn3C(C)(C)C)cc2c1`, the activity change is reported as inconclusive: -31.7%. With `CC(C)CN(C(=O)COC(=O)c1ccc(Br)cc1)c1c(N)n(Cc2ccccc2)c(=O)[nH]c1=O` the activity change was inconclusive: -43.6%. With `CCSc1ccc(-c2cc(NC=O)c3ncc(-c4cccc(C(=O)NCCN(C)C)c4)n3c2)cc1` the activity change was active: -108%. In the case of `COc1ccc(Nc2nc(NCc3ccco3)nc(N/N=C/c3ccccc3F)n2)cc1`, the activity change is reported as inconclusive: -37.3%. In the case of `Oc1c(N=NC(=S)Nc2ccccc2F)c2ccccc2n1Cc1ccccc1Cl`, the activity change is reported as inconclusive: -33.8%. In the case of `COc1cccc(C(=O)NNC(=O)Cc2cccs2)c1`, the activity change is reported as inactive: 0%. For `Cc1ccc(-n2nnnc2-c2cnn(-c3cccc(F)c3)c2C(F)(F)F)cc1`, the activity change was inactive: 1.38%. In the case of `COCCn1c(=NC(=O)c2cc(-c3cccs3)nc3ccccc23)sc2cc(S(N)(=O)=O)ccc21`, the activity change is reported as inconclusive: -35.4%. For `COC(=O)c1c(NC(=O)CCS(=O)(=O)c2ccccc2)sc2c1CCN(C)C2`, the activity change was inconclusive: -36.6%. For `CCOC(=O)Cc1csc(SCC(=O)N2CCN(c3ccccc3)CC2)n1`, the activity change was inactive: 9.8%. With `CC(C)NC(=O)CSc1nc(Cc2ccccc2)nc2ccccc12` the activity change was active: -69.5%. In the case of `CCc1ccc(NC(=O)CSc2nc(NS(=O)(=O)c3ccccc3)cc(=O)[nH]2)cc1`, the activity change is reported as active: -55.4%. In the case of `COc1ccc(S(=O)(=O)N(C)C[C@H]2Oc3ccc(NC(=O)NC4CCCCC4)cc3C(=O)N([C@H](C)CO)C[C@@H]2C)cc1`, the activity change is reported as inconclusive: -33.2%. In the case of `NC1=NC(=Nc2cccc(S(=O)(=O)N3CCOCC3)c2)c2ccccc21`, the activity change is reported as active: -59.6%. With `C=CCOC(=O)C1=C(C)NC(C)=C(C(=O)OCC=C)C1/C=C/c1ccccc1` the activity change was active: -68.8%. In the case of `COc1cc(NC(=O)c2ccccc2)c(OC)cc1NC(=O)CN1CCOCC1`, the activity change is reported as inconclusive: -48%. For `O=C(NCc1ccco1)c1ccc(CS(=O)(=O)c2cccc(C(F)(F)F)c2)o1`, the activity change was inconclusive: -34.7%. With `COc1ccc(C(=O)/C=C/c2cc(OC)c(O)c(OC)c2)c(F)c1` the activity change was active: -100%. With `N/C(CCS(=O)(=O)c1ccc(Cl)cc1)=N\OC(=O)c1ccccc1C(F)(F)F` the activity change was active: -83.6%. In the case of `COc1cccc(-c2cnc(C(O)c3ccc(Cl)c(Cl)c3)[nH]2)c1` (stereo not drawn), the activity change is reported as inactive: 21.1%. For `CCOC(=O)C1=C(C)NC2=C(C(=O)c3ccccc32)C1c1ccc([N+](=O)[O-])o1` (stereo not drawn), the activity change was active: -65.9%. With `Cc1ccccc1C(=O)c1cccn1CC(=O)NCCN1CCN(c2cccc(C)c2C)CC1` the activity change was inconclusive: -36.9%. With `CCOc1ccc2[nH]c(=O)c(CN(Cc3cccs3)C(CC)c3nnnn3C(C)(C)CC)cc2c1` (stereo not drawn) the activity change was inconclusive: -41.5%. With `COc1ccc(Oc2c(Cl)cnn(-c3ccccc3)c2=O)cc1` the activity change was active: -118%. For `O=C(C1CCC(CNc2nc(=S)[nH]c3ccccc23)CC1)N1CCN(c2ccccn2)CC1` (stereo not drawn), the activity change was inconclusive: -46%. For `Cc1ccc(S(=O)(=O)N2C[C@H]3N(C(=O)OC(C)C)N(C(=O)OC(C)C)C[C@H](OC(=O)NC4CCCC4)[C@@]3(O)C2)cc1`, the activity change was inconclusive: -30.6%. With `CCOc1ccccc1OCCCC(=O)NNC(=O)c1cc(C)oc1C` the activity change was inconclusive: -38.6%. For `CCOc1ccc2nc(N/C(N)=N/S(C)(=O)=O)nc(C)c2c1`, the activity change was inconclusive: -38.1%. For `c1ccc2c(Nc3ccc4c(c3)OCCO4)c3c(nc2c1)CCCC3`, the activity change was active: -134%. With `O=C(Nc1ccc(Cl)cc1)N1CCC(c2ccccc2)C1` (stereo not drawn) the activity change was inconclusive: -40.7%. In the case of `O=C(c1cc(-c2ccncc2)nc2ccccc12)N1CCN(S(=O)(=O)/C=C/c2ccccc2)CC1`, the activity change is reported as inconclusive: -39.6%. In the case of `COc1ccccc1CNC(=O)c1cnn2c(C(F)F)cc(C)nc12`, the activity change is reported as inconclusive: -39.9%. With `CC1(CCc2ccccc2)NC(=O)N(CC(=O)Nc2ccc(OC(F)F)cc2)C1=O` (stereo not drawn) the activity change was inconclusive: -45.6%. For `Cc1cc(OCC(=O)N2CCc3ccccc3C2)c(C)cc1Br`, the activity change was active: -54.8%. For `CC(C)c1ccc(S(=O)(=O)N2CCN(C(=O)c3ccc(N4CCCC4)c([N+](=O)[O-])c3)CC2)cc1`, the activity change was active: -52%. With `NCC(c1ccc(Cl)cc1Cl)c1c[nH]c2ccccc12` (stereo not drawn) the activity change was active: -87.6%. With `C#CC[N+](C)(C)CCCCCCCC` the activity change was active: -54.3%. For `O=C(CCl)Nc1ccc2c(c1)OCO2`, the activity change was active: -97.4%. In the case of `Cc1ccc(C)c(NS(=O)(=O)c2cc(C(=O)NCCSC3CCCCC3)ccc2C)c1`, the activity change is reported as inconclusive: -30.4%. With `O=[N+]([O-])c1cc(S(=O)(=O)NCCCN2CCOCC2)ccc1Cl` the activity change was active: -64.3%. For `O=C(N/N=C/c1ccco1)c1cc(-c2cccc3ccccc23)n[nH]1`, the activity change was inconclusive: -42.6%.
